The supplement of paper PMC4967469

What was measured:
Experiment in all cases: Viability of human cancer cell lines after 72 h of drug (GDSC screen)
LFM-A13 = compound: C/C(O)=C(\C#N)C(=O)Nc1cc(Br)ccc1Br [LFM-A13]; conditions: top dose 16 µM; top dose inferred
Procedure: (§1)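 Human cancer cell lines in 384-well plates, medium with 10% serum, drug for 72 h over a 256-fold dose range (nine 2-fold or five 4-fold steps up to the top dose). Adherent lines were fixed and stained with the nucleic acid dye Syto60, suspension lines read with resazurin; signal relative to control wells, capped at 0 and 100%. One two-parameter sigmoid per drug and line, fitted in a mixed model over all curves with the slope shared within a line.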

TW-37 = compound: CC(C)c1ccccc1Cc1cc(C(=O)Nc2ccc(S(=O)(=O)c3ccccc3C(C)(C)C)cc2)c(O)c(O)c1O [TW-37]; conditions: top dose 5 µM
Procedure: as §1

Bicalutamide = compound: CC(O)(CS(=O)(=O)c1ccc(F)cc1)C(=O)Nc1ccc(C#N)c(C(F)(F)F)c1 [Bicalutamide]; conditions: top dose inferred
Procedure: as §1

AUY922 = compound: CCNC(=O)c1noc(-c2cc(C(C)C)c(O)cc2O)c1-c1ccc(CN2CCOCC2)cc1 [AUY922]; conditions: top dose 0.256 µM; top dose inferred
Procedure: as §1

KIN001-270 = compound: Cc1ccc(Nc2cc(-c3cccc(N4C(=O)c5ccccc5C4=O)c3)ncn2)cc1NS(C)(=O)=O [KIN001-270]; conditions: top dose 20 µM; top dose inferred
Procedure: as §1

Nilotinib = compound: Cc1cn(-c2cc(NC(=O)c3ccc(C)c(Nc4nccc(-c5cccnc5)n4)c3)cc(C(F)(F)F)c2)cn1 [Nilotinib]; conditions: top dose 2 µM
Procedure: as §1

GNF-2 = compound: NC(=O)c1cccc(-c2cc(Nc3ccc(OC(F)(F)F)cc3)ncn2)c1 [GNF-2]; conditions: top dose 1.28 µM; top dose inferred
Procedure: as §1

Gemcitabine = compound: Nc1ccn([C@@H]2O[C@H](CO)[C@@H](O)C2(F)F)c(=O)n1 [Gemcitabine]; conditions: top dose 1.024 µM
Procedure: as §1

T0901317 = compound: O=S(=O)(c1ccccc1)N(CC(F)(F)F)c1ccc(C(O)(C(F)(F)F)C(F)(F)F)cc1 [T0901317]; conditions: top dose 10.24 µM; top dose inferred
Procedure: as §1

MP470 = compound: S=C(NCc1ccc2c(c1)OCO2)N1CCN(c2ncnc3c2oc2ccccc23)CC1 [MP470]; conditions: top dose 20 µM; top dose inferred
Procedure: as §1

[1] = top dose 1.024 µM, screen: GDSC drug entry 150
[2] = top dose 10 µM, screen: GDSC drug entry 1502

Row | Cell Line | AUC (LFM-A13) | IC50 (LFM-A13) | AUC (TW-37) | IC50 (TW-37) | AUC (Bicalutamide; [1]) | IC50 (Bicalutamide; [1]) | AUC (Bicalutamide; [2]) | IC50 (Bicalutamide; [2]) | AUC (AUY922) | IC50 (AUY922) | AUC (KIN001-270) | IC50 (KIN001-270) | AUC (Nilotinib) | IC50 (Nilotinib) | AUC (GNF-2) | IC50 (GNF-2) | AUC (Gemcitabine) | IC50 (Gemcitabine) | AUC (T0901317) | IC50 (T0901317) | AUC (MP470) | IC50 (MP470)
1 | LB2518-MEL (melanoma, adherent) | 0.977 | > 16 µM | 0.451 | 0.227 µM | 0.985 | > 1.02 µM | 0.986 | > 10 µM | 0.686 | 0.0546 µM | 0.977 | > 20 µM | 0.986 | > 2 µM | 0.985 | > 1.28 µM | 0.423 | 0.0389 µM | 0.978 | > 10.2 µM | 0.783 | 8.9 µM
2 | SU-DHL-16 (B-cell lymphoma, suspension) | 0.993 | > 16 µM | 0.452 | 0.239 µM | 0.996 | > 1.02 µM | 0.995 | > 10 µM | 0.549 | 0.021 µM | 0.848 | 9.16 µM | 0.996 | > 2 µM | 0.996 | > 1.28 µM | 0.212 | 0.0126 µM | 0.899 | 6.68 µM | 0.186 | 0.211 µM
3 | QIMR-WIL (acute myeloid leukaemia, suspension) | 0.957 | > 16 µM | 0.407 | 0.175 µM | 0.985 | > 1.02 µM | 0.983 | > 10 µM | 0.432 | 0.0105 µM | 0.945 | > 20 µM | 0.986 | > 2 µM | 0.985 | > 1.28 µM | 0.035 | < 0.004 µM | 0.942 | > 10.2 µM | 0.578 | 2.03 µM
4 | DMS-79 (small cell lung carcinoma, suspension) | 0.984 | > 16 µM | 0.711 | 1.38 µM | 0.987 | > 1.02 µM | 0.977 | > 10 µM | 0.936 | > 0.256 µM | 0.965 | > 20 µM | 0.987 | > 2 µM | 0.967 | > 1.28 µM | 0.907 | > 1.02 µM | 0.987 | > 10.2 µM | 0.915 | > 20 µM
5 | MZ1-PC (pancreas, adherent) | 0.955 | > 16 µM | 0.579 | 0.54 µM | 0.972 | > 1.02 µM | 0.977 | > 10 µM | 0.49 | 0.0149 µM | 0.979 | > 20 µM | 0.975 | > 2 µM | 0.907 | > 1.28 µM | 0.719 | 0.316 µM | 0.971 | > 10.2 µM | 0.944 | > 20 µM
6 | NEC8 (testis, adherent) | 0.986 | > 16 µM | 0.302 | 0.0962 µM | 0.991 | > 1.02 µM |  |  | 0.609 | 0.0303 µM | 0.841 | 11 µM | 0.987 | > 2 µM | 0.976 | > 1.28 µM | 0.242 | 0.0133 µM | 0.985 | > 10.2 µM | 0.99 | > 20 µM
7 | EW-13 (Ewing sarcoma, suspension) | 0.886 | > 16 µM | 0.864 | > 5 µM | 0.984 | > 1.02 µM | 0.984 | > 10 µM | 0.513 | 0.0174 µM | 0.909 | > 20 µM | 0.909 | > 2 µM | 0.981 | > 1.28 µM | 0.046 | < 0.004 µM | 0.945 | > 10.2 µM | 0.895 | > 20 µM
8 | KMS-12-BM (myeloma, suspension) | 0.989 | > 16 µM | 0.484 | 0.285 µM | 0.991 | > 1.02 µM |  |  | 0.686 | 0.0478 µM | 0.984 | > 20 µM | 0.963 | > 2 µM | 0.991 | > 1.28 µM | 0.807 | 0.418 µM | 0.921 | > 10.2 µM | 0.839 | 10.4 µM
9 | MFM-223 (breast, adherent) | 0.988 | > 16 µM | 0.641 | 0.765 µM | 0.987 | > 1.02 µM | 0.973 | > 10 µM | 0.967 | > 0.256 µM | 0.985 | > 20 µM | 0.988 | > 2 µM | 0.988 | > 1.28 µM | 0.988 | > 1.02 µM | 0.981 | > 10.2 µM | 0.922 | > 20 µM
10 | SU-DHL-4 (B-cell lymphoma, suspension) | 0.994 | > 16 µM | 0.434 | 0.217 µM | 0.997 | > 1.02 µM | 0.997 | > 10 µM | 0.56 | 0.0224 µM | 0.946 | 18.8 µM | 0.997 | > 2 µM | 0.996 | > 1.28 µM | 0.964 | > 1.02 µM | 0.996 | > 10.2 µM | 0.85 | 9.11 µM
11 | NCI-H1838 (lung adenocarcinoma, adherent) | 0.985 | > 16 µM | 0.736 | 1.73 µM | 0.986 | > 1.02 µM | 0.985 | > 10 µM | 0.979 | > 0.256 µM | 0.979 | > 20 µM | 0.986 | > 2 µM | 0.982 | > 1.28 µM | 0.987 | > 1.02 µM | 0.975 | > 10.2 µM | 0.968 | > 20 µM
12 | NCI-H1092 (small cell lung carcinoma, suspension) | 0.99 | > 16 µM | 0.692 | 1.09 µM | 0.99 | > 1.02 µM | 0.985 | > 10 µM | 0.819 | 0.147 µM | 0.965 | > 20 µM | 0.977 | > 2 µM | 0.98 | > 1.28 µM | 0.933 | > 1.02 µM | 0.988 | > 10.2 µM | 0.881 | > 20 µM

A lower IC50 marks a more sensitive line; fits outside the tested doses are given as limits. AUC sums up the same curve from the lowest dose to the 256-fold higher top dose; it is 1 without any effect and falls as sensitivity rises. For some assays here: A top dose marked as inferred was derived from the fitted curves, not read from the paper. For some assays here: Drugs with an entry number were screened twice under separate entries, and the two screens often disagree.
